# PubChem BioAssay (NCI)
#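 Where inhibition never reached the appropriate level, the endpoint shown equals the highest concentration tested. Otherwise, values were interpolated linearly from a five-concentration, 48-hour dose response in 96-well plates. TGI marks complete inhibition of growth.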
# Legend:
# Test in all cases: NCI-60 cell line screen, 48 h
# [1] = tested on: MDA-MB-231 breast
# [2] = tested on: COLO 205 colon
# [3] = tested on: MOLT-4 leukemia
# [4] = tested on: OVCAR-3 ovarian
# [5] = tested on: ACHN renal
# [6] = tested on: M19-MEL melanoma
# [7] = tested on: K-562 leukemia
# [8] = tested on: SK-OV-3 ovarian
# [9] = tested on: PC-3 prostate
# [10] = tested on: CAKI-1 renal
# [11] = tested on: TK-10 renal
# [12] = tested on: EKVX NSCLC
# [13] = tested on: LXFL 529 NSCLC
# [14] = tested on: SF-268 CNS
# [15] = tested on: OVCAR-4 ovarian
# [16] = tested on: XF 498 CNS
# [17] = tested on: SNB-75 CNS
# [18] = tested on: MCF7 breast
# [19] = tested on: HCC-2998 colon
# [20] = tested on: KM12 colon
# [21] = tested on: HT29 colon
# [22] = tested on: KM20L2 colon
# [23] = tested on: DMS 114 small cell lung
# [24] = tested on: LOX IMVI melanoma
# [25] = tested on: RPMI-8226 leukemia
# [26] = tested on: HOP-92 NSCLC
# [27] = tested on: UO-31 renal
# [28] = tested on: MDA-MB-435
# [29] = tested on: RXF 393 renal
# [30] = tested on: DLD-1 colon
# [31] = tested on: HOP-62 NSCLC
# [32] = tested on: CCRF-CEM leukemia
# [33] = tested on: M14 melanoma
# [34] = tested on: HCT-116 colon
# [35] = tested on: A549 NSCLC
# [36] = tested on: DMS 273 small cell lung
# [37] = tested on: SF-539 CNS
# [38] = tested on: SW-620 colon
# [39] = tested on: T-47D breast
# [40] = tested on: UACC-257 melanoma
# [41] = tested on: NCI-H226 lung
# [42] = tested on: SR leukemia
# [43] = tested on: SK-MEL-5 melanoma
# [44] = tested on: MDA-N
# [45] = tested on: SK-MEL-28 melanoma
# [46] = tested on: NCI-H23 lung
# [47] = tested on: HCT-15 colon
# [48] = tested on: HOP-18 NSCLC
# [49] = tested on: UACC-62 melanoma
# [50] = tested on: SN12C renal
# [51] = tested on: U251 CNS
# [52] = tested on: A498 renal
# [53] = tested on: SK-MEL-2 melanoma
# [54] = tested on: MALME-3M melanoma
# [55] = tested on: BT-549 breast
# [56] = tested on: 786-0 renal
# [57] = tested on: NCI/ADR-RES ovarian
# [58] = tested on: NCI-H460 lung
# [59] = tested on: SNB-19 CNS
# [60] = tested on: IGROV1 ovarian
# [61] = tested on: HL-60(TB) leukemia
# [62] = tested on: SF-295 CNS
# [63] = tested on: OVCAR-8 ovarian
# [64] = tested on: DU-145 prostate
# [65] = tested on: OVCAR-5 ovarian
smiles,measurement,setting,value
COc1c(O)cc2c(c1OC)-c1ccc(SC)c(=O)cc1C(NC(C)=O)CC2 (stereo not given),TGI,[1],> 100 µM
same,TGI,[2],0.106 µM
same,TGI,[3],> 100 µM
same,TGI,[4],0.0724 µM
same,TGI,[5],> 100 µM
same,TGI,[6],> 100 µM
same,TGI,[7],35.9 µM
same,TGI,[8],12.2 µM
same,TGI,[9],> 100 µM
same,TGI,[10],47.7 µM
same,TGI,[11],96.4 µM
same,TGI,[12],> 100 µM
same,TGI,[13],> 100 µM
same,TGI,[14],> 100 µM
same,TGI,[15],> 100 µM
same,TGI,[16],> 100 µM
same,TGI,[17],18.6 µM
same,TGI,[18],> 100 µM
same,TGI,[19],4.11 µM
same,TGI,[20],0.145 µM
same,TGI,[21],1.61 µM
same,TGI,[22],0.0147 µM
same,TGI,[23],0.014 µM
same,TGI,[24],> 100 µM
same,TGI,[25],77.7 µM
same,TGI,[26],11.4 µM
same,TGI,[27],> 100 µM
same,TGI,[28],0.0235 µM
same,TGI,[29],2.87 µM
same,TGI,[30],> 100 µM
same,TGI,[31],> 100 µM
same,TGI,[32],31.6 µM
same,TGI,[33],55 µM
same,TGI,[34],0.935 µM
same,TGI,[35],> 100 µM
same,TGI,[36],> 100 µM
same,TGI,[37],0.0275 µM
same,TGI,[38],> 100 µM
same,TGI,[39],> 100 µM
same,TGI,[40],> 100 µM
same,TGI,[41],1.2 µM
same,TGI,[42],0.844 µM
same,TGI,[43],0.386 µM
same,TGI,[44],0.272 µM
same,TGI,[45],> 100 µM
same,TGI,[46],1.77 µM
same,TGI,[47],26.5 µM
same,TGI,[48],> 100 µM
same,TGI,[49],> 100 µM
same,TGI,[50],> 100 µM
same,TGI,[51],13.4 µM
same,TGI,[52],8.55 µM
same,TGI,[53],4.12 µM
same,TGI,[54],> 100 µM
same,TGI,[55],4.64 µM
same,TGI,[56],> 100 µM
same,TGI,[57],7.13 µM
same,TGI,[58],1.33 µM
same,TGI,[59],> 100 µM
same,TGI,[60],> 100 µM
same,TGI,[61],0.0175 µM
same,TGI,[62],0.758 µM
same,TGI,[63],28.7 µM
same,TGI,[64],0.112 µM
same,TGI,[65],> 100 µM
